# Assay results: PMC4336329 (PLoS ONE, 2015)
# About 14,000 (4.5%) of roughly 310,000 compounds showed an effect of 50% or more. Effects have a minus sign here. This is one part of the list.
# Target: human ether-à-go-go-related gene (hERG) potassium channel (human, UniProt Q12809)
# Assay: primary screen, population patch clamp on CHO cells stably expressing hERG
# 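Also: peak tail current of the secondary pulse compared with the same well before compound.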
# Sequence of human ether-à-go-go-related gene (hERG) potassium channel (Q12809 whole entry, looked up): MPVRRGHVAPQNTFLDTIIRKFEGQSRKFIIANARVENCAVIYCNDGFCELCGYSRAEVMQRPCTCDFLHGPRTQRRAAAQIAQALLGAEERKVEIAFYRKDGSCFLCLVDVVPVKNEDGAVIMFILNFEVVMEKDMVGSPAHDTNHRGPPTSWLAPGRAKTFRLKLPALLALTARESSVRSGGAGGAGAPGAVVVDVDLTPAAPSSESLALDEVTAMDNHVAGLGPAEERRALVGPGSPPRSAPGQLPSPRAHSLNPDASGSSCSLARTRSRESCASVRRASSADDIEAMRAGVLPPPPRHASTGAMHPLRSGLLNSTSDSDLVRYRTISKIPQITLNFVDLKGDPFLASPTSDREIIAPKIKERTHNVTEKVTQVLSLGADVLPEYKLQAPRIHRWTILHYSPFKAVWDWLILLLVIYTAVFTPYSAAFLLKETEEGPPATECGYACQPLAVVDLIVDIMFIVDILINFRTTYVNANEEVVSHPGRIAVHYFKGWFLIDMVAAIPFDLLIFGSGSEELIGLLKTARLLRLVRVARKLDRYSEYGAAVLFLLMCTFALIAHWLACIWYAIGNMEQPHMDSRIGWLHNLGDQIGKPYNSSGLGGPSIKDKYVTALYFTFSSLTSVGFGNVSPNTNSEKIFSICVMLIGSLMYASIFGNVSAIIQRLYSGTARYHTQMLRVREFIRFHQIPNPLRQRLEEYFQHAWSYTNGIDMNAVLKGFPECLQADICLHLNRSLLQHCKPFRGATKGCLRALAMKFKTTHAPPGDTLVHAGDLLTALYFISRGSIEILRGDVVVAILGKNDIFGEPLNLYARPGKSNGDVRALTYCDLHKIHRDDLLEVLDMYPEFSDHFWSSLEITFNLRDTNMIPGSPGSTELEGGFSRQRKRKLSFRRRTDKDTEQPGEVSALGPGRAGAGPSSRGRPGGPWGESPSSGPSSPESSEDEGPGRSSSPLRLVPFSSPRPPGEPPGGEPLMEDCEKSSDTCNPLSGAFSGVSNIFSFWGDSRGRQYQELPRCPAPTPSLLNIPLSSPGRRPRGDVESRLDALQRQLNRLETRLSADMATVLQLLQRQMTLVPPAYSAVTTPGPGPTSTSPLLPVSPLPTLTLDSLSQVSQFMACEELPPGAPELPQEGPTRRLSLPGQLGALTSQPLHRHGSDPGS
row,SMILES,"hERG current change (%, negative = inhibition) at 10uM [%]"
1,COc1cc(OC)c(OC)cc1CN1CCN(C(=O)COc2ccc3ccccc3c2)CC1.O=C(O)C(=O)O,-36.4
2,COc1ccc(-c2noc(N3CCC(C(=O)NCc4ccc(F)cc4)CC3)n2)cc1,-20.4
3,COc1ccc(N2CCN(c3c(S(=O)(=O)c4ccccc4)cnc4ccc(OC)cc34)CC2)cc1,-17.7
4,CC(=O)c1ccc(N2C(=O)[C@@H]3C(CCC(N)=O)NC4(C(=O)Nc5c4ccc(Cl)c5C)[C@@H]3C2=O)cc1 (some centres unmarked),11
5,CCSc1nnc(N2C(=O)C(O)=C(C(=O)c3ccco3)C2c2cccc(OC)c2)s1 (centres unmarked),-2.02
6,COC(=O)C[N+](C)(C)CC#Cc1ccccc1.[Br-],2.14
7,O=C(Nc1nnc(CC(=O)N2CCOCC2)s1)C1COc2ccccc2O1 (centres unmarked),2.97
8,CCN=C1SC(C(=O)Nc2ccccc2)CC(=O)N1CC (centres unmarked),11.9
9,COC(=O)c1cc2oc(C)cc2n1CC(=O)N1CCCc2ccccc21,-11.9
10,COc1ccccc1-n1cc(CN2CCN(C3CCCC3)C(CCO)C2)cn1 (centres unmarked),-15.3
11,COc1ccc(NC(=O)C(C)N(c2ccc(C)cc2)S(C)(=O)=O)cc1 (centres unmarked),-22.6
12,C/C(=N\NC(=O)CC(C)C)c1ccc(N2CCCCC2)cc1,-1.29
13,O=C(NCc1ccccc1)c1onc(CS(=O)(=O)c2ccccn2)c1C(=O)NCc1ccccc1,-35.3
14,O=C(CSc1ccc(Cl)cc1)NC1CCCc2ccccc21 (centres unmarked),13.9
15,COc1ccc(-c2cc(C(=O)Nc3ccccc3)on2)cc1,46.6
16,COc1cc2c3nnc(-c4ccccc4)c-3cn(Cc3ccccc3F)c2cc1OC,-0.741
17,CCc1ccc(C2=Nn3c(nnc3-c3cccs3)SC2)cc1,-12.2
18,CC1CCN(C(=O)COC(=O)c2ccccc2NC(=O)c2ccco2)CC1,-60.9
19,CCOC(=O)c1sc2nc(N3CCOCC3)c3c(c2c1N)CCCC3,9.05
20,COC(=O)c1scc(C)c1NS(=O)(=O)c1ccc(NC(C)=O)cc1,0.324
21,O=C1CC(Cc2ccccc2)C(=O)N1CCc1ccc2c(c1)OCO2 (centres unmarked),-23.4
22,CC(C)C(NC(=O)OCc1ccccc1)C(=O)O (centres unmarked),8.66
23,CCOC(=O)C1CCN(C(=O)CN2C(=O)COc3ccc(C(C)(C)C)cc32)CC1,-19.3
